Values joined by “and” are separate entries in the source; they are usually repeats but may differ in a detail not shown here. Equal values may be shown once.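 Protocol summary: plate cells (96-well), add compound at 5 concentrations, incubate 48 h, interpolate endpoints linearly. At the GI50, growth is halved. At the TGI there is no net growth.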
Tested on: NCI-H322M lung
Assay: DTP human tumour cell line panel, 48 h

Row | SMILES | TGI | GI50
1 | O=C1OC(CC(=O)c2ccc(F)cc2)C(Cl)=C1Cl (configuration not stated) | 34.8 µM | 
2 | O=C(Nc1ccccc1)c1cc2ccccc2c(N=Nc2cccc([N+](=O)[O-])c2)c1O | > 100 µM | 
3 | CC(=O)Nc1ccccc1-c1nc2ccccc2nc1-c1ccccc1 | > 100 µM | 
4 | C=C1CC[C@@]2(C)[C@@H]([C@@H]1C)[C@H]1CC[C@@H]3[C@@]4(C)CC[C@H](O)C(C)(C)[C@@H]4CC[C@@]3(C)[C@]1(C)C[C@@H]2O | 5.54 µM | 
5 | Cc1ccc2c(c1)[n+](=O)c(C(=O)c1cccs1)c(C(F)(F)F)n2[O-] | 3.07 µM and 7.2 µM | 0.886 µM and 0.836 µM
6 | CC(C)OP(=O)(OC(C)C)C(=NCCO)NNc1ccc([N+](=O)[O-])cc1 | > 100 µM | 

Source: PubChem BioAssay (NCI)
